Experimental data published in the supplement of paper PMC8728848.
The other results are listed elsewhere or left out.

Legend:
Assay in all cases: glycan array binding signal (z-score within array); higher = stronger binding
Conditions in all cases: glycan notation: IUPAC condensed, linker removed
[1] = biological target: Gal(b1-4)GlcNAc(b1-2)Man(a1-6)[Man(a1-3)]Man(b1-4)GlcNAc(b1-4)GlcNAc
Method in brief: (§1)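 The binding signal is a Z-score computed within each array. Data were drawn from 3228 arrays in the Consortium for Functional Glycomics database, restricted to those with a known protein sequence. Scores were averaged over arrays of the same protein sequence at different concentrations or buffers, and over linkers, and negative values can be taken as non-binding.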

[2] = biological target: Gal(b1-4)GlcNAc(b1-2)[Gal(b1-4)GlcNAc(b1-4)]Man(a1-3)[Gal(b1-4)GlcNAc(b1-2)Man(a1-6)]Man(b1-4)GlcNAc(b1-4)GlcNAc
Method in brief: as §1

[3] = biological target: Gal(b1-4)GlcNAc(b1-2)[Gal(b1-4)GlcNAc(b1-4)]Man(a1-3)[Gal(b1-4)GlcNAc(b1-2)[Gal(b1-4)GlcNAc(b1-6)]Man(a1-6)]Man(b1-4)GlcNAc(b1-4)GlcNAc
Method in brief: as §1

[4] = biological target: Gal(b1-4)GlcNAc(b1-2)[Gal(b1-4)GlcNAc(b1-4)]Man(a1-3)[GlcNAc(b1-4)][Gal(b1-4)GlcNAc(b1-2)Man(a1-6)]Man(b1-4)GlcNAc(b1-4)GlcNAc
Method in brief: as §1

[5] = biological target: Gal(b1-4)GlcNAc(b1-2)[Gal(b1-4)GlcNAc(b1-4)]Man(a1-3)[GlcNAc(b1-4)][Gal(b1-4)GlcNAc(b1-2)[Gal(b1-4)GlcNAc(b1-6)]Man(a1-6)]Man(b1-4)GlcNAc(b1-4)GlcNAc
Method in brief: as §1

[6] = biological target: Gal(b1-4)GlcNAc(b1-2)[Gal(b1-4)GlcNAc(b1-6)]Man(a1-6)[Gal(b1-4)GlcNAc(b1-2)Man(a1-3)]Man(b1-4)GlcNAc(b1-4)GlcNAc
Method in brief: as §1

[7] = biological target: Gal(b1-4)GlcNAc(b1-2)[Gal(b1-4)GlcNAc(b1-6)]Man(a1-6)[Gal(b1-4)GlcNAc(b1-2)Man(a1-3)]Man(b1-4)GlcNAc(b1-4)[Fuc(a1-6)]GlcNAc
Method in brief: as §1

[8] = biological target: Gal(b1-4)GlcNAc(b1-2)[Gal(b1-4)GlcNAc(b1-6)]Man(a1-6)[GlcNAc(b1-4)][Gal(b1-4)GlcNAc(b1-2)Man(a1-3)]Man(b1-4)GlcNAc(b1-4)GlcNAc
Method in brief: as §1

[9] = biological target: Gal(b1-4)GlcNAc(b1-2)[Gal(b1-4)GlcNAc(b1-6)]Man(a1-6)[GlcNAc(b1-4)][Gal(b1-4)GlcNAc(b1-2)[Gal(b1-4)GlcNAc(b1-4)]Man(a1-3)]Man(b1-4)GlcNAc(b1-4)[Fuc(a1-6)]GlcNAc
Method in brief: as §1

[10] = biological target: Gal(b1-4)GlcNAc(b1-3)Gal(b1-3)GalNAc
Method in brief: as §1

[11] = biological target: Gal(b1-4)GlcNAc(b1-3)Gal(b1-3)GlcNAc
Method in brief: as §1

[12] = biological target: Gal(b1-4)GlcNAc(b1-3)Gal(b1-4)Glc
Method in brief: as §1

[13] = biological target: Gal(b1-4)GlcNAc(b1-3)Gal(b1-4)GlcNAc
Method in brief: as §1

[14] = biological target: Gal(b1-4)GlcNAc(b1-3)Gal(b1-4)GlcNAc(b1-2)Man(a1-3)[Gal(b1-4)GlcNAc(b1-3)Gal(b1-4)GlcNAc(b1-2)Man(a1-6)]Man(b1-4)GlcNAc(b1-4)GlcNAc
Method in brief: as §1

[15] = biological target: Gal(b1-4)GlcNAc(b1-3)Gal(b1-4)GlcNAc(b1-2)Man(a1-3)[Gal(b1-4)GlcNAc(b1-3)Gal(b1-4)GlcNAc(b1-2)Man(a1-6)]Man(b1-4)GlcNAc(b1-4)[Fuc(a1-6)]GlcNAc
Method in brief: as §1

[16] = biological target: Gal(b1-4)GlcNAc(b1-3)Gal(b1-4)GlcNAc(b1-2)[Gal(b1-4)GlcNAc(b1-3)Gal(b1-4)GlcNAc(b1-6)]Man(a1-6)[Gal(b1-4)GlcNAc(b1-3)Gal(b1-4)GlcNAc(b1-2)Man(a1-3)]Man(b1-4)GlcNAc(b1-4)GlcNAc
Method in brief: as §1

[17] = biological target: Gal(b1-4)GlcNAc(b1-3)Gal(b1-4)GlcNAc(b1-2)[Gal(b1-4)GlcNAc(b1-3)Gal(b1-4)GlcNAc(b1-6)]Man(a1-6)[Gal(b1-4)GlcNAc(b1-3)Gal(b1-4)GlcNAc(b1-2)Man(a1-3)]Man(b1-4)GlcNAc(b1-4)[Fuc(a1-6)]GlcNAc
Method in brief: as §1

[18] = biological target: Gal(b1-4)GlcNAc(b1-3)Gal(b1-4)GlcNAc(b1-3)Gal(b1-4)GlcNAc
Method in brief: as §1

[19] = biological target: Gal(b1-4)GlcNAc(b1-3)Gal(b1-4)GlcNAc(b1-3)Gal(b1-4)GlcNAc(b1-2)Man(a1-3)[Gal(b1-4)GlcNAc(b1-3)Gal(b1-4)GlcNAc(b1-3)Gal(b1-4)GlcNAc(b1-2)Man(a1-6)]Man(b1-4)GlcNAc(b1-4)GlcNAc
Method in brief: as §1

[20] = biological target: Gal(b1-4)GlcNAc(b1-3)Gal(b1-4)GlcNAc(b1-3)Gal(b1-4)GlcNAc(b1-2)Man(a1-3)[Gal(b1-4)GlcNAc(b1-3)Gal(b1-4)GlcNAc(b1-3)Gal(b1-4)GlcNAc(b1-2)Man(a1-6)]Man(b1-4)GlcNAc(b1-4)[Fuc(a1-6)]GlcNAc
Method in brief: as §1

[21] = biological target: Gal(b1-4)GlcNAc(b1-3)Gal(b1-4)GlcNAc(b1-3)Gal(b1-4)GlcNAc(b1-2)[Gal(b1-4)GlcNAc(b1-3)Gal(b1-4)GlcNAc(b1-3)Gal(b1-4)GlcNAc(b1-6)]Man(a1-6)[Gal(b1-4)GlcNAc(b1-3)Gal(b1-4)GlcNAc(b1-3)Gal(b1-4)GlcNAc(b1-2)Man(a1-3)]Man(b1-4)GlcNAc(b1-4)[Fuc(a1-6)]GlcNAc
Method in brief: as §1

[22] = biological target: Gal(b1-4)GlcNAc(b1-3)Gal(b1-4)GlcNAc(b1-3)Gal(b1-4)GlcNAc(b1-3)Gal(b1-4)GlcNAc(b1-2)Man(a1-3)[Gal(b1-4)GlcNAc(b1-3)Gal(b1-4)GlcNAc(b1-3)Gal(b1-4)GlcNAc(b1-3)Gal(b1-4)GlcNAc(b1-2)Man(a1-6)]Man(b1-4)GlcNAc(b1-4)GlcNAc
Method in brief: as §1

B1: PX9961J-bvu-499-24-499 (Bacteroides vulgatus) (protein)
chain: LNTDPSTAVPSDDAIKNIDDAQVALNGIYRLASAHSYYGDNYLYYADCRGEDVQARINKGAGRRVSPYYFFDVTADDNFNITLVWNQPYKVIHQANSLIEKLDAGNAGNARPEEVARIKSEALAMRGLALFDLTRLFGMPYTLDNGASLGVPIEIQTTLEDHAPERNTVAQCYEQVLKDLNDALGGLTKEKHDAYMNYWSVKALLSRVYLYMNDNENALKCAEEVINDNGGIYRLFTHDEYPSVWGKDFNSESLFEFYFTMSEPSGGSGGEGAPMVYADNVKDWNNLILTKAYLDLLNEDPEDVRHVFPHLPENAVADTLPVAAKGQPKYLIKYPGKSGSVTDAVSTVNPQDNDLCILRLSEVYLNAAEAAFKIGNTEKALTYLNAIVTRANPAKSVTSADLSLERILKERRKELVGEGHAFFDYMRNGKSVDRSGGWHLTMPEDARVIAPSDPRVALPIPQTEIDANPNIVQNPR
glycan array binding signal (z-score) [1]: -0.135
glycan array binding signal (z-score) [2]: -0.602
glycan array binding signal (z-score) [3]: -0.107
glycan array binding signal (z-score) [4]: 0.429
glycan array binding signal (z-score) [5]: -0.467
glycan array binding signal (z-score) [6]: 0.07
glycan array binding signal (z-score) [7]: 0.199
glycan array binding signal (z-score) [8]: -0.073
glycan array binding signal (z-score) [9]: 0.482
glycan array binding signal (z-score) [10]: -0.725
glycan array binding signal (z-score) [11]: -0.35
glycan array binding signal (z-score) [12]: 0.024
glycan array binding signal (z-score) [13]: 0.003
glycan array binding signal (z-score) [14]: 0.506
glycan array binding signal (z-score) [15]: 1.59
glycan array binding signal (z-score) [16]: 0.177
glycan array binding signal (z-score) [17]: 3.83
glycan array binding signal (z-score) [18]: -0.47
glycan array binding signal (z-score) [19]: 1.01
glycan array binding signal (z-score) [20]: -0.049
glycan array binding signal (z-score) [21]: 0.849
glycan array binding signal (z-score) [22]: 0.075
